To fix the notation:
B1: CPEB3 Ribozyme (parent)
chain: UAACAGGGGGCCACAGCAGAAGCGUUCACGUCGCAGCCCCUGUCAGAUUCUGGUGAAUCUGCGAAUUCUGCUGUAUAUCUC

The source gives no read counts; variants with many changes may rest on few reads.

The variants in this data set derive from B1. The experiment in a line: self-cleavage, relative activity (ratio to wild type); higher = more cleavage; in vitro, sequencing. The procedure, abridged: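 Relative activity was defined as the cleaved/total read fraction for a variant divided by the same fraction for the unmutated ribozyme. CPEB3 self-cleaving ribozyme libraries were made by rounds of error-prone PCR, barcoded, and transcribed in vitro with T7 RNA polymerase for 5 hours at 37°C, and cleavage ran through transcription plus a 15 min DNase I step before EDTA. Illumina sequencing of template-switched reverse transcripts gave the reads, and DNA sequencing mapped the barcodes. Averages come from three batches, using variants with at least 5 reads.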
For A5G A13G A47G U58C, the self-cleavage amounted to 0.52.
In the case of A5C A13G G24C A35G A45G, the self-cleavage worked out at 0.43.
Under C4U U31C A56U U80C stands 0.68.
Regarding A5G A15U U58A, the self-cleavage turned out to be 0.14.
With A5C U67C U76C, the self-cleavage turned out to be 0.26.
In the case of A5G A13G A21G U60C U72C, the self-cleavage is 0.
Next, C4U C11U A20G U25C A56U U72A: 0.06; C4U G9U A15G U51C G53C: 0.4; A5C G10A A56G U76A: 0.37.
For the variant A5C A18U A64U A75G, the self-cleavage was found to be 0.4.
In the case of A5G A15G A65G, the self-cleavage is 0.34.
For the variant A5G A15G U26C U41A A64U, the self-cleavage is 0.13.
Under A5C A20G C34U U48C U66C U72A A75U stands 0.02; under A5C G42A G53C, 0.45.
Regarding C4U U43C A47G U49C, the self-cleavage is 0.24.
Consider A5C A13U U26C C39U U69A, for which the self-cleavage worked out at 0.1.
Consider A5G A13U C17A A28G U78C, for which the self-cleavage was 0.3.
Under A5C U74C U80A stands 1.15.
A5C U74C U80C: the self-cleavage was found to be 1.17.
For A5C G8A A13U A21G, the self-cleavage stood at 0.13.
In the case of A5G A13G A15C U67C U78C, the self-cleavage amounted to 0.08.
As for A5C A18G C59U U72A U74C, the self-cleavage worked out at 0.81.
With A5G A15G U41A U54G, the self-cleavage stood at 0.06.
As for A5C A15U U41C, the self-cleavage was determined as 0.68.
On to A5G A13G U26C A47G U74C, for which the self-cleavage was 0.04.
Under A5G A13U A21G stands 0.6; under A5C U25C A47G U67C, 0.43; under A5C G10A A15G C40U U43C U54A, 0.46.
As to A5C G24A U54C, the self-cleavage came out at 0.18.
As to A5C G19A U31A A45G U60C, the self-cleavage was 0.03.
As for A5C G30A C37G A77U, the self-cleavage was 0.18.
Under A5C G9U A15G A28U stands 0.48; under C4U A20U U74A U80C, 0.75; under A5G A18G A20G U26C G55U U69C, 0.47.
Next, A5C G7A U54C U72C: 0.51; A5C U25C A65U: 0.29.
Next, A5C A18G U31A A65G U72C: 0.21; C4U A35U A56G: 0.63; A5G A15G C38U U41C A47U A64U: 0.06.
Turning to A5G A15U A21G A64G, the self-cleavage amounted to 0.06.
On to A5G A15G U31A A47G U51A A65G, for which the self-cleavage was determined as 0.13.
With A5G A13G A28U, the self-cleavage worked out at 0.29.
Under A5G A15G U41C A77G stands 0.46.
On to A5C C17U A28G A35G A47G, for which the self-cleavage is 0.57.
In the case of A5G A13G A56U U66C, the self-cleavage worked out at 0.18.
On to A5C C37G U41C, for which the self-cleavage came to 0.8.
As for A5G A15G A56G, the self-cleavage was 0.55.
As for C4U U31C A57G, the self-cleavage was 0.84.
Under C4U C23G U25C U26C U66C U78C stands 0.1; under A5G A18C A20U A35G U41A, 0.47; under A5G A13G U31A C44A A64G, 0.06.
Next, A5G A13G A20G C39G G42A U60C: 0.29.
As to A5C C23U A56G, the self-cleavage was 0.36.
In the case of A5G A13G A18G U58C, the self-cleavage is 0.13.
In the case of A5G A15G U41C U48C G55A A64G, the self-cleavage was determined as 0.1.
With A5G A13G G24C C29U A77G, the self-cleavage is 0.44.
For A5C G42A U48C, the self-cleavage was 0.06.
Consider A5C G10A U25C U72C, for which the self-cleavage was determined as 0.38.
With A5C A15U U49C U69C U72C U78C, the self-cleavage was 0.14.
Under A5G A15U C29A A45U U74C stands 0.07; under A5G A15G C37U U41A G63U, 0.31; under A5G A13G U43C A45U U54C, 0.57.
On to A5G A15C U60G A65G U72G, for which the self-cleavage is 0.15.
Regarding A5G A15U A20G U69C, the self-cleavage is 0.1.
With A5C G22A G30A A35U, the self-cleavage was found to be 0.1.
For A5C A20U C44A A45G, the self-cleavage stood at 0.34.
Under C4U G9U A28U U54C U80C stands 0.12; under A5G A15U U49C, 0.5.
Under C4U G7A A35G U51C A57G stands 0.54; under A5C G6C U80C, 0.63; under A5G A13U A20U, 0.19.
Regarding C4U A56G U58A, the self-cleavage worked out at 0.48.
Next, A5C C44U G53C U54C A64U: 0.28.
Under A5C U31A U48C U51A stands 0.19; under A5G A13G U26A U43C U78C, 0.05.
In the case of A5G A13G A21G U76A, the self-cleavage is 0.4.
As to C4U U51G A56G A57G U74A, the self-cleavage was determined as 1.
For C4U G10A C39U U48C C62U, the self-cleavage was 0.06.
Consider A5G A15G A20G U26C A57U U58A U72C, for which the self-cleavage worked out at 0.04.
Under A5G A13U A21U A35G U48C A75G stands 0.2; under A5G A15U U48C A64G U69A U78C, 0.17; under A5C G9U A28U A45U, 0.23.
On to C4U U49A A56G U80A, for which the self-cleavage was 0.96.
As to A5G A13U U43G U66C U72C, the self-cleavage amounted to 0.18.
Under A5C G9A A15G stands 0.61; under A5G A13G A15C U25A U26A U66C U76C, 0.34.
Next, C4U G8A U54C U66C: 0.05.
With A5C U43C A45G A47G, the self-cleavage worked out at 0.08.
As to C4U U25C A28U C29A U67G, the self-cleavage was found to be 0.17.
On to A5G A15G A18U A28G A45G U72C, for which the self-cleavage stood at 0.
Turning to A5G A15G G22C A57U U69A, the self-cleavage stood at 0.21.
Turning to A5G A15C U41G G70A U78A, the self-cleavage amounted to 0.03.
Turning to A5G A15U G24A U58C U78C, the self-cleavage is 0.33.
For A5G A15U A20U U25C A45C G52U U66C, the self-cleavage is 0.06.
As for A5C A18G U54A U66C U78C, the self-cleavage is 0.18.
With A5G A13G A28G U31C C37G G46U A65G, the self-cleavage was 0.44.
For A5C U74A U78C, the self-cleavage was found to be 1.01.
As for A5G A15G C17G A20U U58C, the self-cleavage stood at 0.08.
Next, A5G A15G U25A C38A: 0.15.
Regarding A5G A15C U60C, the self-cleavage worked out at 0.05.
Regarding A5G A13G G24A U43A U48C, the self-cleavage was determined as 0.05.
Take C4U U25C C50U U51C U54C: the self-cleavage worked out at 0.42.
Next, A5G A18G A28G U54C G55U: 0.38; A5G A13G U48C A65G: 0.05; A5C A15U A18G C44U A64U U78A: 0.09.
Consider A5C U31A G46U G52C A64G, for which the self-cleavage was 0.22.
Next, A5C A15U U43A U66A U69C: 0.21; A5C U31A A57G: 0.51.
Next, C4U A45U A56G U67C: 0.37; A5C A35U A75U: 0.7.
Under C4U C12U A35C U76A stands 1.16.
A5C A15U A35C U51C A57U C71A U78C: the self-cleavage amounted to 0.04.
For the variant A5G A15G A35G A47G, the self-cleavage turned out to be 0.63.
Consider A5C C37U A65G, for which the self-cleavage came out at 0.31.
Next, A5C A13G A56U U58A U66C: 0.23.
Take C4U U25C U41A U78C: the self-cleavage came to 0.31.
For A5G A13U A28G A35G, the self-cleavage turned out to be 0.82.
Next, A5C C34G U43C: 0.44; A5C A21G U60C A65G: 0.14.
As to A5C G6C U25C U67C, the self-cleavage is 0.08.
As for A5G A13G C17U G24A A45U U54C, the self-cleavage worked out at 0.05.
On to A5G A15U A21G A47G U67C, for which the self-cleavage was 0.25.
For A5G A15G C17U A56G, the self-cleavage is 0.54.
A5G A15U A18U U26C G30U G52A: the self-cleavage stood at 0.38.
Regarding A5G A18G A21G C27A, the self-cleavage was 0.46.
On to A5G A13U A20G A21G G33U C79A, for which the self-cleavage came to 0.
A5C A20C U31C U60A: the self-cleavage stood at 0.51.
A5C U41A U69C: the self-cleavage amounted to 0.25.
Take C4U G6C U31C A35G U54A: the self-cleavage turned out to be 0.32.
Turning to C4U A21G U58C, the self-cleavage came to 0.69.
With C4U G33C G53C A64G, the self-cleavage came out at 0.14.
As to A5C C44A U48A U78C, the self-cleavage was 0.15.
Turning to A5G A15G U25C G33A G46A U51A A77G, the self-cleavage was 0.22.
Next, A5C U54C U60C U72C U80G: 0.79; A5G A13G C44G C62G U80A: 0.34; A5G A13G A35U U49C U58C: 0.06.
With A5G A15G C59U U78C, the self-cleavage was 0.33.
In the case of A5C U25G U58C U74C, the self-cleavage amounted to 0.36.
In the case of A5G A15G U41C A56U, the self-cleavage stood at 0.12.
Consider A5C C12U A13U U48C U69A U72C, for which the self-cleavage is 0.27.
Take A5C A15U A20U U26A C29G C38A A64G: the self-cleavage was 0.45.
Next, C4U U41A U51C U54C U60C C62U: 0.27; C4U A28C G30C A57G U60C: 0.15.
Consider A5C C11U A18G U51C, for which the self-cleavage was determined as 0.35.
Next, C4U A28G U31A U41A U49C U51C: 0.26.
As to A5G A13U A35G U41G, the self-cleavage is 0.42.
As to C4U U31A U69C U72C G73U, the self-cleavage came out at 0.24.
Under C4U C11G C38G U66C stands 0.05.
For the variant A5G A15G G33A A35G C37A A56U U78C, the self-cleavage was 0.01.
Regarding A5G A15G A20U, the self-cleavage is 0.69.
Next, A5G A15G U49C U51A: 0.25; C4U A21C U41A G46A A47G A77G: 0.03; A5C A18C A20G U25G U76A: 0.55.
Consider C4U A45G U49G U54C, for which the self-cleavage turned out to be 0.23.
A5G A13U U41A U72A: the self-cleavage worked out at 0.66.
Consider C4U C23G U25C C32A C40A A75G, for which the self-cleavage is 0.06.
In the case of A5G A13G G24A U43A U72A, the self-cleavage was 0.32.
For A5G A13G A18G U26C G33A U67C, the self-cleavage was found to be 0.38.
A5G A15U A18G A21G A47G: the self-cleavage is 0.36.
Next, A5G A13U G24A A57G A65G: 0.09; A5G A13U U41C U60A: 0.28; C4U G30C G46C A57U G63A: 0.22.
Turning to C4U A21G G30A U31C A56U, the self-cleavage is 0.12.
Consider A5C C17A A18G U49G A65G, for which the self-cleavage was determined as 0.03.
In the case of A5G A15U A18U A75C U80C, the self-cleavage was 0.44.
For the variant A5G A18G A35G A64C U80C, the self-cleavage is 0.33.
For the variant A5C U25C A45U U49A G52C U80A, the self-cleavage was 0.03.

The values are drawn from the RNAGym collection of RNA variant scans (doi:10.1093/nar/gkz1192).
